# Measurements as given in the supplement of paper PMC9446081.
# The campaign covered roughly 39,000 compounds. About 220 (0.56%) showed activity. Some of the results follow.
# System: Escherichia coli K-12 BW25113
# Test: relative growth (OD600 normalised to plate interquartile mean) (fraction); higher = less growth inhibition, active = 0.2 or less
# Conditions: 50 µM; LB; incubation time: overnight (16-24 h)
# 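Further: static incubation at 37 °C against the wild-type strain, values averaged over two biological replicates.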
row,SMILES,relative growth
1,COc1ccc(CN(C)C[C@H]2Oc3ccc(NC(=O)CCN4CCOCC4)cc3C(=O)N([C@H](C)CO)C[C@H]2C)cc1,inactive: 0.99
2,O=C(O)CNC(=O)c1cc2ccccc2[nH]1,inactive: 0.95
3,COc1cccc(C(=O)Nc2ccc3c(c2)C(=O)N(C)[C@H]2CC[C@@H](CC(=O)NCC(F)(F)F)O[C@H]2CO3)c1,inactive: 1.02
4,C[C@@H]1CCCCO[C@H](CN(C)C(=O)c2ccccc2)[C@H](C)CN([C@H](C)CO)C(=O)c2cc(NC(=O)c3ccccc3)ccc2O1,inactive: 1.04
5,C[C@H](NC(=O)N(C)C[C@@H]1OCc2ccccc2-c2c(n(C)c3ccccc23)C(=O)N([C@H](C)CO)C[C@@H]1C)c1ccccc1,inactive: 0.997
6,CN(C)CCCCNC(=O)[C@H]1C[C@H]2C(=O)N[C@@H](CCCCN)C(=O)N2[C@H]1c1cccc(OCCO)c1,inactive: 0.982
7,C[C@@H]1CN([C@H](C)CO)C(=O)c2cc(NC(=O)Nc3ccc(C(F)(F)F)cc3)ccc2O[C@@H](C)CCCCO[C@@H]1CN(C)C(=O)c1ccccc1,inactive: 1.04
8,C[C@H]1CN([C@@H](C)CO)C(=O)c2cc(NC(=O)c3ccncc3)ccc2O[C@H]1CN(C)Cc1ccc(-c2ccccc2)cc1,inactive: 1
9,CS(=O)(=O)N1C[C@H](O)COC[C@@H]2O[C@@H](CC(=O)NCc3ccccc3)CC[C@H]21,inactive: 0.987
10,C[C@@H]1CCCCO[C@@H](CN(C)C(=O)NC2CCCCC2)[C@H](C)CN([C@@H](C)CO)C(=O)c2cc(NC(=O)Nc3ccccc3)ccc2O1,inactive: 1.02
11,Cc1ccc(S(=O)(=O)N(C)C[C@@H]2Oc3ccc(NS(=O)(=O)c4ccc(F)cc4)cc3CC(=O)N([C@H](C)CO)C[C@@H]2C)cc1,inactive: 1.01
12,C=C1C=[N+]([O-])N(c2ccc(C(=O)O)cc2)N1,inactive: 1.03
13,C[C@@H]1CN([C@H](C)CO)C(=O)c2cc(NC(=O)Cc3ccccc3)ccc2O[C@@H](C)CCCCO[C@H]1CN(C)C(=O)Cc1ccccc1,inactive: 0.977
14,Cc1ccc(N2C(=O)C(=O)NC2=S)cc1,inactive: 0.973
15,C[C@@H]1CN([C@@H](C)CO)C(=O)Cc2cc(NC(=O)CCCCCC(=O)Nc3ccccc3N)ccc2O[C@@H]1CN(C)S(C)(=O)=O,inactive: 1.02
16,CC(C)NC(=O)Nc1ccc2c(c1)C(=O)N([C@H](C)CO)C[C@@H](C)[C@H](CN(C)S(=O)(=O)c1cn(C)cn1)O2,inactive: 0.979
17,N=C(N)NCCN1CCCCCCC1.O=S(=O)(O)O,inactive: 1
18,CCS(=O)(=O)N1C[C@]2(CCN(CC2)S(=O)(=O)c2cccs2)c2c(n(c3cc(ccc23)OC)C)[C@H]1CO,inactive: 0.983
19,C[C@@H]1CCCCO[C@@H](CN(C)C(=O)C2CCCCC2)[C@@H](C)CN([C@H](C)CO)C(=O)c2cc(NC(=O)Nc3ccc(F)cc3)ccc2O1,inactive: 1
20,COc1ccc(S(=O)(=O)Nc2ccc3c(c2)C(=O)N([C@H](C)CO)C[C@H](C)[C@@H](CN(C)S(=O)(=O)c2ccccc2)O3)cc1,inactive: 1.02
21,C[C@@H]1CN([C@H](C)CO)S(=O)(=O)c2ccc(-c3cncnc3)cc2O[C@@H]1CN(C)C(=O)Cc1ccncc1,inactive: 0.996

row,SMILES,relative growth
1,CC(C)(C)c1csc(-c2ccc(-c3cccs3)s2)n1,inactive: 0.916
2,CCCC#Cc1ccc2c(c1)O[C@H](CN(C)Cc1ccc3c(c1)OCO3)[C@H](C)CN([C@H](C)CO)S2(=O)=O,inactive: 1.05
3,C[C@@H]1CCCCO[C@@H](CN(C)Cc2ccc3c(c2)OCO3)[C@H](C)CN([C@@H](C)CO)C(=O)c2cc(NS(=O)(=O)c3ccccc3)ccc2O1,inactive: 0.982
4,CO[C@@H]1CN(C)C(=O)c2ccc(NS(C)(=O)=O)cc2OC[C@@H](C)N(C(=O)c2ccc3c(c2)OCO3)C[C@H]1C,inactive: 0.989
5,C[C@H](CO)N1C[C@H](C)[C@@H](CN(C)C(=O)c2cccc(F)c2)Oc2cc(-c3ccncc3)ccc2S1(=O)=O,inactive: 1.02
6,CN(C)CCC(c1ccc(Cl)cc1)c1ccccn1.O=C(O)C=CC(=O)O (stereo unspecified),inactive: 0.956
7,C[C@H](CO)N1C[C@H](C)[C@H](CN(C)C(=O)c2ccccc2)OCCCC[C@H](C)Oc2ccc(NC(=O)Nc3ccc(F)cc3)cc2C1=O,inactive: 1.03
8,O=C(C[C@@H]1CC[C@@H]2[C@H](COC[C@@H](O)CN2S(=O)(=O)c2ccccc2)O1)NCCN1CCCCC1,inactive: 1.02
9,OCC1OC(OCCc2ccc(O)cc2)C(O)C(O)C1O (stereo unspecified),inactive: 0.958
10,C=CCNC(=O)[C@@H]1[C@H]2C(=O)O[C@H](c3ccccc3)[C@H](c3ccccc3)N2[C@H](c2ccc(OCCO)cc2)[C@@]12C(=O)N(C(=O)OCCOC)c1ccc(C#Cc3ccc(OC)cc3)cc12,inactive: 1.02
11,CO[C@@H]1CN(C)C(=O)c2cc(NS(=O)(=O)CC(F)(F)F)ccc2OC[C@@H](C)N(Cc2ccccn2)C[C@H]1C,inactive: 0.999
12,C[C@H]1CN([C@@H](C)CO)C(=O)c2cccc(NS(=O)(=O)c3cn(C)cn3)c2O[C@@H]1CN(C)Cc1ccc2c(c1)OCO2,inactive: 0.993
13,C[C@@H]1CN([C@@H](C)CO)C(=O)c2cccc(NC(=O)Nc3ccc(F)cc3)c2O[C@H]1CN(C)Cc1ccc(Oc2ccccc2)cc1,inactive: 0.956
14,C[C@@H]1CN([C@H](C)CO)C(=O)c2cccc(NC(=O)Nc3ccc(C(F)(F)F)cc3)c2O[C@H]1CN(C)C(=O)Nc1ccc(F)cc1,inactive: 0.889
15,COc1ccc(S(=O)(=O)N(C)C[C@H]2Oc3ccc(NS(=O)(=O)c4ccc(C)cc4)cc3CC(=O)N([C@H](C)CO)C[C@H]2C)cc1,inactive: 1.02
16,C[C@@H]1CN([C@@H](C)CO)C(=O)c2cc(NC(=O)CCC(F)(F)F)ccc2O[C@@H](C)CCCCO[C@@H]1CN(C)C(=O)CCC(F)(F)F,inactive: 0.985
17,COc1ccc(cc1)NC(=O)N1C[C@]2(C1)CN([C@H](CO)c1[nH]c3cc(ccc3c12)OC)C(=O)CN1CCOCC1,inactive: 1.02
18,C[C@H]1CN([C@@H](C)CO)C(=O)c2cccc(NS(=O)(=O)c3cn(C)cn3)c2O[C@@H]1CN(C)CC1CC1,inactive: 0.997
19,COc1ccc(CN(C)C[C@@H]2OCCCC[C@H](C)Oc3ccc(NC(=O)CCC(F)(F)F)cc3C(=O)N([C@@H](C)CO)C[C@@H]2C)cc1,inactive: 0.997
20,C[C@@H]1CCCCO[C@H](CN(C)Cc2ccc3c(c2)OCO3)[C@H](C)CN([C@H](C)CO)C(=O)c2cc(NC(=O)Nc3ccc(C(F)(F)F)cc3)ccc2O1,inactive: 1.01
21,C[C@@H]1CN([C@H](C)CO)S(=O)(=O)c2ccc(C#CC3CCCCC3)cc2O[C@@H]1CN(C)C(=O)Cc1ccncc1,inactive: 0.996

row,SMILES,relative growth
1,C[C@@H]1CN([C@@H](C)CO)C(=O)c2cccc(NC(=O)NC3CCCCC3)c2O[C@@H]1CN(C)Cc1ccc(C(F)(F)F)cc1,inactive: 1.02
2,NC(=O)[C@@H]1CC[C@@H]2CN1C(=O)N2OS(=O)(=O)O,active: 0.19
3,CC1(O)CCOC(=O)C1 (stereo unspecified),inactive: 0.908
4,C[C@H]1CN([C@@H](C)CO)C(=O)Cc2cc(NC(=O)CCCCCC(=O)Nc3ccccc3N)ccc2O[C@H]1CN(C)Cc1ccccc1,inactive: 0.99
5,CC1CCC(NC(=O)N(CCCl)N=O)CC1 (stereo unspecified),inactive: 1.13
6,COc1ccc(NC(=O)Nc2ccc3c(c2)[C@@H]2C[C@H](CC(=O)NCc4ccc(-c5ccccc5)cc4)O[C@@H](CO)[C@@H]2O3)cc1,inactive: 0.997
7,C[C@@H]1CN([C@@H](C)CO)C(=O)c2cccc(NC(=O)C3CCCCC3)c2O[C@@H]1CN(C)Cc1ccc(-c2ccccc2)cc1,inactive: 0.988
8,COc1ccc(S(=O)(=O)N(C)C[C@@H]2Oc3ncc(C#Cc4ccc(OC)c(OC)c4)cc3C(=O)N([C@H](C)CO)C[C@@H]2C)cc1,inactive: 0.91
9,C[C@H]1CN([C@@H](C)CO)C(=O)c2cc(NS(=O)(=O)c3cn(C)cn3)ccc2O[C@@H]1CN(C)S(=O)(=O)c1ccc(Cl)cc1,inactive: 0.999
10,Cc1ccc(S(=O)(=O)Nc2cccc3c2O[C@@H](CN(C)Cc2ccc(-c4ccccc4)cc2)[C@@H](C)CN([C@H](C)CO)C3=O)cc1,inactive: 1.03
11,C[C@H](CO)N1C[C@H](C)[C@H](CN(C)C(=O)Nc2ccc(C(F)(F)F)cc2)Oc2c(NS(=O)(=O)c3ccc(Cl)cc3)cccc2C1=O,inactive: 0.993
12,C[C@H]1CN([C@@H](C)CO)C(=O)Cc2cc(NC(=O)Nc3ccc(C(F)(F)F)cc3)ccc2O[C@H]1CN(C)C(=O)Nc1ccc(F)cc1,inactive: 0.997
13,O=C(COc1ccc(S(=O)(=O)N2CCOCC2)cc1)NCCCn1ccnc1,inactive: 0.984
14,C[C@@H]1CCCCO[C@@H](CN(C)C(=O)C2CCCCC2)[C@@H](C)CN([C@H](C)CO)C(=O)c2cc(NS(=O)(=O)c3ccc(Cl)cc3)ccc2O1,inactive: 1.01
15,Oc1ccc(O)cc1,inactive: 1.14
16,COc1cc2ncnc(Oc3cccc(NC(=O)Nc4cc(C(C)(C)C(F)(F)F)on4)c3)c2cc1OC,inactive: 0.843
17,Nc1cc[nH]c(=O)n1,inactive: 0.997
18,COC(=O)C[C@@H]1CC[C@H]2[C@@H](COC[C@@H](O)CN2S(=O)(=O)c2cn(C)cn2)O1,inactive: 0.982
19,C[C@@H]1CN([C@@H](C)CO)C(=O)Cc2cc(NC(=O)Nc3ccc(F)cc3)ccc2O[C@@H]1CN(C)Cc1ccc(Cl)c(Cl)c1,inactive: 0.978
